# Laboratory results published in the supplement of paper PMC8285479.
# Structures can show the parent of a compound that is named as a salt. ± gives the standard deviation of the averaged measurements. The full ranking holds about 1,900 compounds; the median of “normalised cell viability (NPI; 0 = phenylarsine oxide control, 1 = DMSO control)” is about 1, and the lowest 2% start at about 0.039. The list shows a part of the results.
# System: NCI-H1944
# Test: normalised cell viability (NPI; 0 = phenylarsine oxide control, 1 = DMSO control) (fraction of DMSO control); NCI-H1944 is a non-small cell lung cancer line; higher = more viable cells (less compound toxicity)
# Conditions: 6 days
# [1] = glucocorticoid arm: hydrocortisone 2.75 uM co-treatment, compound 1 µM
# [2] = glucocorticoid arm: hydrocortisone 2.75 uM co-treatment, compound 5 µM
# [3] = glucocorticoid arm: hydrocortisone 2.75 uM pre-treated 2 days and continued, compound 1 µM
# [4] = glucocorticoid arm: hydrocortisone 2.75 uM pre-treated 2 days and continued, compound 5 µM
# [5] = glucocorticoid arm: vehicle, compound 1 µM
# [6] = glucocorticoid arm: vehicle, compound 5 µM
# 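Also: CTB read-out in 384-well plates, mean of triplicate wells, normalised per plate against 1 µM phenylarsine oxide and 0.1% DMSO, compounds added 24 h after seeding.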
SMILES,normalised cell viability [1],normalised cell viability [2],normalised cell viability [3],normalised cell viability [4],normalised cell viability [5],normalised cell viability [6]
COC(=O)C1=C(C)NC(C)=C(C(=O)OCCN(C)Cc2ccccc2)C1c1cccc([N+](=O)[O-])c1 (stereo not given) [Nicardipine hydrochloride],1.013 ± 0.0058,0.985 ± 0.022,1.006 ± 0.0075,1.07 ± 0.081,1.001 ± 0.0081,1.02 ± 0.015
Cc1nc(C#Cc2ccnc(Cl)c2)c(C)n1-c1ccc(OC(F)(F)F)cc1,0.993 ± 0.021,0.992 ± 0.01,0.983 ± 0.015,0.9747 ± 0.004,1 ± 0.017,1 ± 0.014
Cc1ccccc1CNc1ncnc2c1ncn2[C@@H]1O[C@H](CO)[C@@H](O)[C@H]1O [Metrifudil],1.01 ± 0.011,1.03 ± 0.017,1.02,1.04 ± 0.071,0.996 ± 0.004,1.001 ± 0.0085
OC[C@H]1O[C@@H](c2ccc(Cl)c(Cc3ccc(O[C@H]4CCOC4)cc3)c2)[C@H](O)[C@@H](O)[C@@H]1O,1.033 ± 0.0058,1.01 ± 0.016,1.027 ± 0.0058,1.03 ± 0.023,1.01 ± 0.01,0.9943 ± 0.0074
"CC(C)NCC(O)c1ccc(O)c(O)c1 (single isomer, unassigned; (-)) [(-)-Isoproterenol hydrochloride]",0.9853 ± 0.0075,0.97 ± 0.038,0.996 ± 0.0046,0.998 ± 0.097,0.9933 ± 0.0025,0.992 ± 0.008
NCCNS(=O)(=O)c1cccc2c(Cl)cccc12 [A3 hydrochloride],1.003 ± 0.0058,0.992 ± 0.017,0.897 ± 0.18,1.01 ± 0.018,0.998 ± 0.002,0.997 ± 0.0027
Cc1ccccc1C(OCCN(C)C)c1ccccc1 (stereo not given) [Orphenadrine Citrate],1.01 ± 0.015,1.017 ± 0.0058,1.02 ± 0.021,1.04 ± 0.015,1.007 ± 0.0058,1.001 ± 0.0076
Cc1ccccc1C(OCCN(C)C)c1ccccc1 (stereo not given) [Orphenadrine hydrochloride],1.004 ± 0.01,1.027 ± 0.0058,1.007 ± 0.0058,1.06 ± 0.084,0.998 ± 0.0017,1.006 ± 0.0075
O=C1CCc2ccc(OCCCCN3CCN(c4cccc(Cl)c4Cl)CC3)cc2N1 [Aripiprazole],1.03 ± 0.01,1.01 ± 0.011,1.03 ± 0.015,1.03 ± 0.015,1.003 ± 0.0058,0.9943 ± 0.0042
O=C1CCC(N2C(=O)c3ccccc3C2=O)C(=O)N1 (stereo not given) [Thalidomide],0.982 ± 0.015,0.988 ± 0.01,0.983 ± 0.03,0.974 ± 0.017,0.9907 ± 0.004,0.9753 ± 0.005
O=C1CCC(N2C(=O)c3ccccc3C2=O)C(=O)N1 (stereo not given),1.02 ± 0.015,1.03 ± 0.021,1.03,1.04 ± 0.017,1.01 ± 0.012,1.02
CCCCCCCCCCCCCCCCCC(=O)NCC(COP(=O)([O-])OCC[N+](C)(C)C)OCC (racemic) [rac-2-Ethoxy-3-octadecanamido-1-propylphosphocholine],1.017 ± 0.0058,1.04 ± 0.011,1.01 ± 0.011,1.04 ± 0.021,0.9997 ± 0.0091,1.002 ± 0.0067
CC(=O)OCC1=C(C(=O)O)N2C(=O)[C@@H](NC(=O)Cc3cccs3)[C@H]2SC1 [Cephalothin sodium salt],1.01 ± 0.015,1.023 ± 0.0058,1.003 ± 0.0058,1.02 ± 0.035,1.017 ± 0.0058,1.013 ± 0.0058
CN(CCOc1ccc(C[C@H](Nc2ccccc2C(=O)c2ccccc2)C(=O)O)cc1)c1ccccn1,1.01 ± 0.014,1.006 ± 0.0069,1.01 ± 0.016,1.01 ± 0.01,1.003 ± 0.0058,1.01
CC(NC(=O)Cc1cc(F)cc(F)c1)C(=O)NC1C(=O)N(C)c2ccccc2-c2ccccc21 (stereo not given),0.977 ± 0.0072,0.998 ± 0.0035,0.983 ± 0.015,0.999 ± 0.019,0.9847 ± 0.0057,0.9813 ± 0.007
CC(N)C(=O)OC(C)(C)Cc1ccc(Cl)cc1 (stereo not given) [Alaproclate hydrochloride],0.99 ± 0.031,0.981 ± 0.016,0.871 ± 0.23,1.004 ± 0.0092,1.01,1.003 ± 0.0061
CCOc1cc(N)c(Cl)cc1C(=O)NCC1CN(Cc2ccc(F)cc2)CCO1 (stereo not given) [Mosapride Citrate],1.01 ± 0.014,1.04 ± 0.021,0.992 ± 0.026,1.02 ± 0.024,1.007 ± 0.0058,1.01
CNCCCN1c2ccccc2CCc2ccccc21 [Desipramine hydrochloride],0.996 ± 0.0035,0.944 ± 0.018,0.996 ± 0.014,0.9767 ± 0.0075,0.9963 ± 0.004,0.9937 ± 0.0021
C[C@@]1(c2cc(-c3cncnc3)c(F)cc2F)CCSC(N)=N1,0.99 ± 0.012,1.017 ± 0.0058,1,1.01 ± 0.019,0.995 ± 0.0046,1.003 ± 0.0058
COc1ccc(CCNC[C@@H](O)c2ccc(O)cc2)cc1OC [R(-)-Denopamine],1.01 ± 0.01,1.017 ± 0.0058,1.02 ± 0.017,1.013 ± 0.0058,1.01,1.01 ± 0.014
CCc1cnn2c(NCc3ccc[n+]([O-])c3)cc(N3CCCC[C@H]3CCO)nc12,0.0547 ± 0.0038,0.0409 ± 0.0039,0.144 ± 0.004,0.153 ± 0.0068,0.0139 ± 0.0022,0.00878 ± 0.0013
O=C1NC(=O)[C@@H](c2cn3c4c(cccc24)CCC3)[C@@H]1c1c[nH]c2ccccc12 [ARQ 197 (Tivantinib)],0.447 ± 0.025,0.36 ± 0.0085,0.745 ± 0.029,0.751 ± 0.007,0.0789 ± 0.0095,0.0435 ± 0.0048
CCCCCCCCCCCCCCSCC(=O)O [Tetradecylthioacetic acid],0.994 ± 0.025,1.01 ± 0.015,0.816 ± 0.31,1.01 ± 0.01,0.995 ± 0.0044,0.9917 ± 0.0064
CCCn1cnc2c1c(=O)n(CCCCC(C)=O)c(=O)n2C [Propentofylline],0.9977 ± 0.0025,1 ± 0.014,0.881 ± 0.21,1.01 ± 0.013,0.9887 ± 0.0025,0.9737 ± 0.0072
CC(C)(CO)Cc1cc(C(C)(C)C)c(O)c(C(C)(C)C)c1,1.017 ± 0.0058,1.02 ± 0.017,1.01 ± 0.01,0.995 ± 0.0071,0.997 ± 0.003,1.002 ± 0.0072
